The labels stand for the following.
B1: CPEB3 Ribozyme (parent)
chain: UAACAGGGGGCCACAGCAGAAGCGUUCACGUCGCAGCCCCUGUCAGAUUCUGGUGAAUCUGCGAAUUCUGCUGUAUAUCUC

The source gives no read counts; variants with many changes may rest on few reads.

Our source for the self-cleavage values is the RNAGym collection of RNA variant scans (doi:10.1093/nar/gkz1192).

Variants of B1 are the subject of this data set. The data set can be described thus: self-cleavage, relative activity (ratio to wild type); higher = more cleavage; in vitro, sequencing. Summed up: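 After error-prone PCR and barcoding, CPEB3 ribozyme mutant libraries were transcribed with T7 RNA polymerase at 37°C for 5 hours, then given 15 min with DNase I before an EDTA stop, and they cleaved during both steps. Reverse transcription with template switching preceded Illumina sequencing. Relative activity divides a variant's cleaved/total read fraction by the unmutated ribozyme's. At least 5 reads were required per variant, and three batches were averaged.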
As to A20U A28G U43C U69A, the self-cleavage was 0.05.
In the case of A20U C40U G63A it was 0.31; in that of A20G U49C C81A, 0.24; in that of A20G U43G U49A A57G C68U, 0.17.
In the case of A20U A56G U58A U69A it was 0.08.
In the case of A20U A21G C40U U41C G42U it was 0.16; in that of A20G U72C U76A, 1.06; in that of A20U A65G U76C A77U, 0.16.
Turning to A20U A56G U78C, the self-cleavage turned out to be 0.11.
In the case of A20G U51C G63A G70U A77U U80C it was 0.21.
In the case of A20G U54C A64U U67C A75C it was 0.22.
Regarding A20U A56U U78A, the self-cleavage worked out at 0.25.
As for A20G U43A A56U A57G U69G, the self-cleavage amounted to 0.28.
In the case of A20U A28U C39A U41A U48C it was 0.13; in that of A20G U49C A56G, 0.61.
In the case of A20U A64U U76C U80C it was 0.19.
For A20U A45U G55U the value was 0.19.
Regarding A20G U49C U51C U60C G70A U72C, the self-cleavage is 0.19.
In the case of A20G U41C U51A G63U it was 1.16; in that of A20U A21U A28G U31A U41A U43A A65G, 0.1.
In the case of A20G U58A U69A U72A it was 0.11; in that of A20G U51C A64G C68A, 0.23.
In the case of A20G U41C U60A U66C it was 0.28; in that of A20U U25C A56U A57G, 0.12.
For the variant A20U C40U U80C, the self-cleavage was 0.32.
In the case of A20U A35U A56U it was 0.14; in that of A20U G24A U26C U43C U49C U69C, 0.13; in that of A20U A21G U41C U69C A75U, 0.12.
For A20G U51A U60A the value was 0.25; for A20G U74C A75G, 1.12.
For A20U A35U U54C the value was 0.08.
For A20U C27U C62U, the self-cleavage amounted to 0.11.
In the case of A20G U49C A56U A75U it was 0.39.
In the case of A20U A28U A47U U66C it was 0.09; in that of A20G U51A U72C, 1.1; in that of A20U U25C U67C, 0.06.
In the case of A20U U25C C38A U54A U69C U78C it was 0.03; in that of A20U A35U G63A A65G U69A, 0.14; in that of A20U A28U U31C A47G A56U U78C, 0.06.
In the case of A20G U43C A45G U60A A77U, the self-cleavage stood at 0.07.
Take A20G U41C G42A: the self-cleavage was 0.28.
For A20U A21G U26C U78C the value was 0.17; for A20U A21U A47G U80A, 0.14.
Regarding A20U A28G A35G U54A, the self-cleavage amounted to 0.75.
In the case of A20U G22A U51A U54C U60C U80C it was 0.08; in that of A20U A28G U48A C50U G55U A65G, 0.08; in that of A20U G55U U60G U69C, 0.08.
For A20G U41C G52C U69C G73U the value was 0.69.
In the case of A20G U49C A75G it was 0.25.
Turning to A20G U41C U60A A64G U74A, the self-cleavage amounted to 0.21.
In the case of A20U A47G U51A U60A it was 0.18; in that of A20U U25A U31A, 0.15.
For A20U C27U A56C the value was 0.05.
For A20U A21G A45G U72C the value was 0.09; for A20U A28G A35G A45C U51C, 0; for A20U C34G U41C A56U U76C, 0.07.
Consider A20U A21G G24A G30A A45U U54C U80A, for which the self-cleavage amounted to 0.13.
In the case of A20G U41C U67C U69A it was 0.59; in that of A20G U54C A56U A57C U58C, 0.12.
As to A20U U26A A35U U58C U66C, the self-cleavage is 0.07.
For A20U U25C A65G the value was 0.27; for A20U U25C A77G, 0.08; for A20U U25C A77U, 0.21.
In the case of A20U A56G U69C it was 0.07.
With A20U A57G G63A, the self-cleavage amounted to 0.17.
For A20U A57G G63U the value was 0.08.
As for A20G U43A U54A U60A A77U, the self-cleavage was 0.26.
In the case of A20U U25C G61C, the self-cleavage was 0.19.
For A20U U25C A28U G36A U72C the value was 0.06; for A20G U48C A56G, 0.36.
For A20U C62A U69G G73A the value was 0.08.
In the case of A20U U25A G46A U49C A64U it was 0.05; in that of A20U G24A U41C A56U, 0.07; in that of A20U U25A G63C, 0.18.
Turning to A20U A28G A35U U48C C50U, the self-cleavage stood at 0.15.
For A20U C29U A35G U60C U78C the value was 0.08; for A20G U43C A64G U69A, 0.04; for A20G U51A U72C U78C, 0.84.
As for A20G U58G G63A G70U U72C A77U U80C, the self-cleavage stood at 0.13.
In the case of A20G U43A U74C U80A it was 1.23; in that of A20G U67C U80G, 1.14; in that of A20G U43A U54C A56G U76A, 0.87.
As to A20U G30C U43C U69C U72G U78C, the self-cleavage is 0.05.
